# Experimental data: PMC4336329 (PLoS ONE, 2015)
# In all, about 310,000 compounds went through this assay and about 2,200 (0.71%) showed an effect of 50% or more. Effects have a minus sign here. This is one part of the list.
# Biological target: human ether-à-go-go-related gene (hERG) potassium channel (human, UniProt Q12809)
# Assay: primary screen, population patch clamp on CHO cells stably expressing hERG
# Chain of human ether-à-go-go-related gene (hERG) potassium channel (Q12809 whole entry, looked up): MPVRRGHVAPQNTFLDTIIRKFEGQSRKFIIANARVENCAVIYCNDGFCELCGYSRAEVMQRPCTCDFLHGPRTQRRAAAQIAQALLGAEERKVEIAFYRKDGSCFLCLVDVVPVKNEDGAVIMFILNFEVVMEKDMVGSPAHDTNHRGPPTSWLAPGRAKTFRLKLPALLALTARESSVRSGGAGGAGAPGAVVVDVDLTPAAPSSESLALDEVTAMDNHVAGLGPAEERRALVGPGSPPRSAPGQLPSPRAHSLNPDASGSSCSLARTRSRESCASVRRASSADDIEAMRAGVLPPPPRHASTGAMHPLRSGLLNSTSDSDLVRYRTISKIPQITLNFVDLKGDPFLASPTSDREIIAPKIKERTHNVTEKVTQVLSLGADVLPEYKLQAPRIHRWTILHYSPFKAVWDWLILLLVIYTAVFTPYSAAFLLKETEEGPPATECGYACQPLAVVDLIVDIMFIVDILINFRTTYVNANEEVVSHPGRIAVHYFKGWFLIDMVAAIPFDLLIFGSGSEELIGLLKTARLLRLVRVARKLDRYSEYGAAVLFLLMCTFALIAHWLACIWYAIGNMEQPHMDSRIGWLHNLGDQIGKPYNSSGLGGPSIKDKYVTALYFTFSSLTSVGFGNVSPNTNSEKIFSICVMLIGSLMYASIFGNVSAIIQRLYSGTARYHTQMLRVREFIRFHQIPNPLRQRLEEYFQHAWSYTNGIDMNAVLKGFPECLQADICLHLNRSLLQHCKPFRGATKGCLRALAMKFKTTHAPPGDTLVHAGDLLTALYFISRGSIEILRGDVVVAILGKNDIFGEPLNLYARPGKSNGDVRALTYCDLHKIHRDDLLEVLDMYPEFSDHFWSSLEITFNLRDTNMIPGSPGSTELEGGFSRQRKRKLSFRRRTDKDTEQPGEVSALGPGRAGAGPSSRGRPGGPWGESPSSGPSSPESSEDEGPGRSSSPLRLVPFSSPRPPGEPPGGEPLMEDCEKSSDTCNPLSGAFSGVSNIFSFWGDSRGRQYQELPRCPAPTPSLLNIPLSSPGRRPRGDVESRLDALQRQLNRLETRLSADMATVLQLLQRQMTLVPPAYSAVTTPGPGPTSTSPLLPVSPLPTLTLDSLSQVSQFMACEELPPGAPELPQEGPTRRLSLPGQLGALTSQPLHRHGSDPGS
row,Compound,"hERG current change (%, negative = inhibition) at 1uM"
1,Cn1/c(=N\NC(=O)C2CCCCC2)sc2ccccc21,16.7%
2,CCC(=O)Nc1c2c(nn1-c1ccc(F)cc1)CS(=O)(=O)C2,10.5%
3,N[C@@H](Cc1cc(I)c(Oc2cc(I)c(O)c(I)c2)c(I)c1)C(=O)O,11%
4,Cc1occc1-c1nnc(SCC(=O)c2ccc(Cl)cc2)n1CC1CCCO1 (stereo not drawn),2.48%
5,CC(C)CN(C(=O)CSc1nnc2c(Cl)cc(C(F)(F)F)cn12)C1CCS(=O)(=O)C1 (stereo not drawn),6.61%
6,CCC(C)N(C(=O)COC(=O)c1cc([N+](=O)[O-])ccc1N1CCOCC1)C1CCS(=O)(=O)C1 (stereo not drawn),7.5%
7,COc1ccccc1N1CCN(C(=O)c2ccc(-c3ccc(Cl)cc3)o2)CC1,10.2%
8,O=C(CSc1nc2ccccc2c(=O)n1-c1ccc(Cl)cc1)N/N=C/C=C/c1ccccc1[N+](=O)[O-],-3.31%
9,O=C(CN1CCN(C(=O)c2ccco2)CC1)N1CCc2[nH]c3ccccc3c2C1,6.07%
10,CNS(=O)(=O)c1cccc(C(=O)OCC(=O)Nc2cc(F)ccc2F)c1,7.16%
11,CC(C)(C)P(=O)(c1ccncc1)N1CCCC1 (stereo not drawn),6.77%
12,O=C(c1cc2nc(-c3ccco3)cc(C(F)(F)F)n2n1)N1CCCc2ccccc21,16.9%
13,O=C(COC(=O)c1c[nH]c(=O)[nH]c1=O)Nc1ccccc1,1.65%
14,O=C1CC(N2CCN(c3nc4ccccc4s3)CC2)C(=O)N1c1ccc(F)cc1 (stereo not drawn),2%
15,COc1ccc(CN=Cc2c(O)[nH]c3ccccc23)cc1,12.1%
16,Cc1c(NC(=O)/C=C/c2cccs2)c(=O)n(-c2ccccc2)n1C,2.11%
17,CCOC(=O)CN1CC23C=CC(O2)C(C(=O)Nc2ccc(OC)cc2OC)C3C1=O (stereo not drawn),11.4%
18,COc1ccc(N2C(=O)C(Cc3ccccc3)NC2=S)cc1 (stereo not drawn),10.1%
19,CCC(C(=O)NCCCN1CC(C)CC(C)C1)n1nc(C)c2sc3ccccc3c2c1=O (stereo not drawn),-6.74%
20,O=C(NCc1ccc(F)cc1Cl)C1CCN(S(=O)(=O)N2CCC3(CC2)OCCO3)CC1,-3.06%
21,CCN(CC)CCC(c1ccc(N(C)C)cc1)c1c(O)cc(OC)cc1OC (stereo not drawn),12.3%
22,COc1cc(N2C(=O)CC(=O)NC2=O)cc(OC)c1OC,11.7%
23,CCOC(=O)c1ccc(NC(=O)CSCCC(=O)O)cc1,10.3%

row,Compound,"hERG current change (%, negative = inhibition) at 1uM"
1,COc1ccc(S(=O)(=O)N2CCCCCC2)cc1C(=O)Nc1cccc(C)n1,14.8%
2,CCOC(=O)C1CCN(C(=O)COC(=O)c2nc3nc(C)cc(C)n3n2)CC1,3.29%
3,CC(C)=CC(=O)O[C@@H]1Cc2cc3ccc(=O)oc3cc2OC1(C)C,12.1%
4,CCN(CC)CCCN(CC(=O)N(C)Cc1ccccc1)C(=O)c1ccc([N+](=O)[O-])cc1.Cl.O,14.9%
5,CCCC(C(=O)NCC1CCCO1)N(C(=O)CNS(=O)(=O)c1ccccc1)c1ccc(F)cc1 (stereo not drawn),13.7%
6,COC(=O)C1(CCSC)NC(c2ccc(O)c(OC)c2)C2C(=O)N(c3ccc(C)cc3)C(=O)C21 (stereo not drawn),14.1%
7,O=C(CCSCc1ccc(Cl)cc1)NCc1ccco1,7.89%
8,O=C(Cc1ccc2c(c1)CCCC2)Nc1ccccc1Br,9.8%
9,COc1ccc(-n2c(C)cc(C(=O)COC(=O)Cn3cnc4ccccc43)c2C)cc1,10%
10,COc1ccccc1NC(=O)C(Sc1ccccc1)c1ccccc1 (stereo not drawn),-0.0801%
11,C=CSc1sc(Cl)c(N(CC)CC)c1[N+](=O)[O-],9.51%
12,O=C(Nc1nc(-c2ccccc2)cs1)c1ccccc1F,14.5%
13,CSc1nccc(-c2cc(Cl)sc2Cl)n1,9.65%
14,O=C(N/N=C/c1ccc2c(c1)OCO2)c1cccs1,9.32%
15,CN(C)C/C=C(/c1ccc(Br)cc1)c1cccnc1.Cl,-60.8%
16,Cc1cccc(Oc2nc(-c3cccc([N+](=O)[O-])c3)nc3ccccc23)c1C,-4.69%
17,O=C(Nc1ccc2c(c1)OCO2)c1ccncc1,11.8%
18,CSc1cccc(NC(=O)C2CCCN(S(=O)(=O)c3cccs3)C2)c1 (stereo not drawn),14.2%
19,O=c1c2cnn(-c3ccccc3)c2nnn1/N=C/c1cccnc1,15.1%
20,O=C(NCc1cccnc1)c1noc2c1CCCC2,1.27%
21,CC1CC1c1ccc(/C=C(\C#N)C(=O)Nc2cc(Cl)ccc2Cl)o1 (stereo not drawn),14.6%
22,COc1ccccc1S(=O)(=O)Nc1cc(S(=O)(=O)N2CCCCC2)ccc1N1CCOCC1,-1.32%
